Test results reported in PubChem BioAssay AID1508624 (National Center for Advancing Translational Sciences (NCATS), 2021).
About 120 (0.25%) of roughly 48,000 compounds were called active. Inconclusive results (about 4%) are left out. The call rests on the fitted dose curve; in most records, active means well fitted activation curve with a large enough effect; inconclusive means small, poorly fitted or top-dose-only effect, or another doubt; inactive means no such curve, though single readings can be large or run the other way. Some of the results follow.

assay: Primary qHTS for Identification of Small Molecule Activators of Huntingtin-Antisense Promoter Activity; conditions: HEK293 HTT-AS promoter firefly luciferase reporter, 24 h; series mostly up to 57.5 µM; activity change, positive = activation: at the top concentration; further: nearly all actives have a fitted effect of over 55% in size
Summary of the method: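 Firefly luciferase signal from promoter-reporter HEK293 cells was scaled between vehicle (0%) and zero RLU (-100%). Compounds were tested at final concentrations of up to 57.5 uM over 24 h at 37 degrees C. PTC124 at 50 uM final served as control inhibitor.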

Activity change, positive = activation, inactive:
O=C(Cn1cc(S(=O)(=O)Cc2ccccc2Cl)c2ccccc21)NCc1ccccc1Cl -34.9%
O=C1c2oc3ccccc3c(=O)c2C(c2ccc(Br)cc2)N1c1ccccn1 (stereo unspecified) -13.2%
COc1ccc(Cn2c(C(=O)O)c(CNCc3cccc(OC)c3)c3ccc(C)cc32)cc1 -54.6%
CCCCN(CC)CCNC(=O)Cn1cnc2sc(C)c(S(=O)(=O)N3CCC(C)CC3)c2c1=O 9.08%
CCOc1ccc(NC(=O)CC2C(=O)N(c3ccccc3)C(=O)N2CCc2ccc(OC)cc2)cc1 (stereo unspecified) 3.57%
Cn1c(=O)oc2cc(S(=O)(=O)N3CCC(C(=O)NCc4ccccc4Cl)CC3)ccc21 -15.8%
Cc1ccc(NC(=O)Cn2nc(C)c3nn(-c4ccc(Cl)cc4)c(C)c3c2=O)cc1C -28.3%
O=C1CN(C(=O)Cc2ccc(F)cc2)C(c2ccccc2)c2cc(Br)ccc2N1 (stereo unspecified) -21.2%
CC(=O)c1ccc(N2CCN(S(=O)(=O)c3c(C)nc4sc(C)cn4c3=O)CC2)cc1 -34%
Cc1cccc(OCc2cc(=O)n3c(-c4ccccc4)csc3n2)c1C 14.4%
CCCn1c(SCc2nc(-c3ccccc3C)no2)nnc1-c1ccc(Cl)cc1 -21.3%
CCOC(=O)c1[nH]c(C)c(CCC(=O)Nc2c(C)cc(C)cc2C)c1C -33.6%
Cc1cccc(N2CCN(C(=O)C3CCC(CNS(=O)(=O)c4ccc(Br)s4)CC3)CC2)c1C (stereo unspecified) -22.6%
CCc1nn(CC(=O)N2CCN(c3cccc(C)c3C)CC2)c(=O)c2cc3occc3n12 -22%
COc1ccc(N2C(=O)CSC23C(=O)N(CC(=O)NC2CCCCC2)c2ccccc23)cc1 (stereo unspecified) -7.82%
CC(C(=O)O)c1cccc(C(=O)c2ccccc2)c1 (stereo unspecified)
CCOc1ccc(S(=O)(=O)N2CCN(c3cc(Cl)ccc3Cl)CC2)c2ccccc12 -10.5%
O=c1[nH]c2ccc(NCc3ccc(-c4cccc(Cl)c4)o3)cc2[nH]1 -29.5%
CCc1ccccc1NC(=O)C(CC)Sc1ncnc2c1sc1ccccc12 (stereo unspecified) -5.69%
Cc1ccc(NC(=O)CN2C(=O)C(c3ccc(F)cc3)=NC23CCCCC3)c(C)c1 -23.6%
Cn1c(=O)c2c(SCC(=O)N3CCc4ccccc43)nc(-c3cccc(F)c3)nc2n(C)c1=O -1.31%
CCOc1ccccc1CNC(=O)C1CCN(S(=O)(=O)c2cccc3nonc23)CC1 -9.23%
CCN(c1ccccc1)S(=O)(=O)c1cc(-c2onc(C)c2C)ccc1OC -29.2%
Cc1ccc(C)c(Cn2c(C(C)NC(=O)c3ccc(F)cc3)nc3ccccc32)c1 (stereo unspecified) -8.47%
CCOc1ccccc1NC(=O)CCS(=O)(=O)c1cccc2nsnc12 -9.6%
CCn1c(=O)c2sccc2n2c(CCCC(=O)N3CCN(c4ccc(OC)cc4)CC3)nnc12 4.61%
COc1cccc(N2C(=O)C(CC(=O)Nc3ccc(Cl)cc3)N(Cc3ccc4c(c3)OCO4)C2=O)c1 (stereo unspecified) 0%
CCc1cccc(NC(=O)c2nnn(Cc3ccc(SC)cc3)c2N)c1 -7.78%
CCOCCCNC(=O)C(c1ccccc1)N(Cc1cccs1)C(=O)c1ccc(NC(C)=O)cc1 (stereo unspecified) -6.06%
COc1ccc(N2CCN(C(=O)c3c(C)oc4ncnc(N5CCCCC5)c34)CC2)cc1 -27.1%
Cc1cccc(N2CCN(C(=O)C3CCCN(S(=O)(=O)c4cccc5nsnc45)C3)CC2)c1C (stereo unspecified) -9.8%
O=C(O)Cc1ccc(OCCNC[C@H](O)c2ccccc2)cc1 -8.57%
Cc1cccc(-c2noc(CCCC(=O)NCc3ccco3)n2)c1 -16.8%
COCCn1c(CCC(=O)Nc2cc(C)ccc2C)nc2cccnc21 0.968%
CC(=O)Nc1ccc(/C=N/NC(N)=S)cc1 3.86%
COc1cccc(CNC(=O)c2cc3cccc4c3n2CC(C)S4)c1OC (stereo unspecified) -34.6%
COc1cc2c(=O)c(S(=O)(=O)c3ccc(F)cc3)cn(Cc3ccccc3C)c2cc1OC -32.2%
Cc1ccc(-c2noc(-c3ccc(N4CCC(C)CC4)c([N+](=O)[O-])c3)n2)cc1 -1.18%
Cc1ccc(-n2cc(-c3ccccc3)c3c(NC4CCCC4)ncnc32)cc1 -9.27%
Cc1cccc(N(C)C(=O)CN2C(=O)COc3ccc(S(=O)(=O)N4CCCCCC4)cc32)c1 -23.6%
Cn1c(CNC(=O)CSc2n[nH]c(-c3ccccc3Cl)n2)nc2ccccc21 0.637%
COc1cc(OC)c(OC)cc1CNCCSc1nnnn1-c1ccccc1 -11%
CCN(Cc1ccccc1)C(=O)C1CCN(c2ncnc3c2nc2n3CCCCC2)CC1 -20.3%
O=C(Nc1ccc(Cl)cc1F)c1oc(=O)c2ccccc2c1-c1ccccc1 -22.6%
O=C(Cc1ccccc1)N(Cc1cccnc1)c1nc2c(F)cccc2s1 -27.7%
O=C(NCc1ccc(Cl)cc1)c1ccc(CSCc2cccc(Cl)c2)o1 -22.8%
Cc1ccccc1OC(=O)c1snnc1C -5.39%
CCOc1cccc2cc(-c3cn4c(n3)sc3cc(C)ccc34)c(=O)oc12 -0.867%
Cc1ccnc(NS(=O)(=O)c2ccc(NC(=O)C(C)(C)Oc3ccc(Cl)cc3)cc2)n1 4.59% [at 11.5 µM, percent change from vehicle, -100% = no light]
COc1ccc(OCc2nc3ccccc3n2C(C)c2ccccc2)cc1 (stereo unspecified) -21.6%
CCOc1ccccc1NC(=O)CSc1nc2c(c(=O)[nH]1)CCC2 -19.9%
Nc1nc(Nc2cccc(C(F)(F)F)c2)sc1C(=O)c1ccccc1 1.08%
Cc1cc(C)c2c(CC(=O)Nc3ccc(S(=O)(=O)N4CCCC(C)C4)cc3)coc2c1 (stereo unspecified) -22.6%
OCCn1cc(-c2ccc3c(c2)CCC3=NO)c(-c2ccncc2)n1 -34.4%
CCOc1cc(C2Nc3ccccc3-c3nnc(SCc4ccccc4)nc3O2)ccc1OC (stereo unspecified) 0.608%
Cc1cc(Br)ccc1NC(=O)C(Cc1ccccc1)NS(=O)(=O)c1ccc(Br)s1 (stereo unspecified) -26.9%
CCC(C(=O)Nc1ccc(C(=O)OC)cc1)n1nc(-c2ccc(C)cc2)c2c(c1=O)CCCC2 (stereo unspecified) -38%
COc1ccccc1CN1CCNC(=O)C1=O 3.1%
COc1ccc(N(Cc2nnc3n2CCCCC3)C(=O)Nc2cccc(C)c2)cc1Cl -9.02%
CCn1c(=N)n(CC(O)COc2ccccc2)c2ccccc21 (stereo unspecified) -9.79%
Cn1c(=O)c2cc(C(=O)NC3CCCCCC3)sc2c2ccccc21 -51.5%
O=C(Cn1ncc2c3ccccc3n(Cc3ccccc3)c2c1=O)NC1CCCCCC1 -9.2%
COc1ccccc1NC(=O)Cn1c(=O)n(-c2cccc(C)c2)c(=O)c2c1c1cc(C)ccc1n2C -7.5%
COc1ccc(NC(=O)C(CC(C)C)NC(=O)C2CCCCC2)cc1 (stereo unspecified) -11.1%
COc1ccc(-c2cnc(C)o2)cc1S(=O)(=O)Nc1ccc(F)cc1F -7.52%
COc1cc(OC)c(NC(=O)c2cn(C3CCCC3)c(=O)c3c2c2ccccc2n3C)cc1Cl -6.56%
COc1cc2c(cc1OC)C(COc1ccc(F)cc1)N(C(=O)c1cccc(F)c1)CC2 (stereo unspecified) -25.8%
CN(C)CCCNC(=O)C(=O)NCC(c1ccc2c(c1)OCO2)N1CCOCC1 (stereo unspecified) 1.09%
Cc1nc2nc(SCC(=O)Nc3ccccc3Cl)nn2c(C)c1Cc1ccccc1 -23.7%
O=C(c1ccc(Br)cc1)N(Cc1cccs1)c1ccc(F)cc1 -26.9%
CN1CCN(C(=O)Cn2ncc3c4ccccc4n(Cc4ccc(F)cc4)c3c2=O)CC1 -2.46%
CCOCCn1ccc2c(OCC(=O)Nc3cccc([N+](=O)[O-])c3)cccc2c1=O -25%
COc1cccc(C(=O)Nc2ccccc2OCc2cc(=O)n3ccccc3n2)c1 -0.225%
Cc1noc(/C=C/c2cccs2)c1S(=O)(=O)N1CCC(C(=O)NCc2ccc(Cl)cc2)CC1 -27.3%
Cc1cc(N(CCO)Cc2ccccc2)n2nc(-c3ccc(C(C)(C)C)cc3)nc2n1 -5.34%
Cc1cccn2c(=O)c(/C=C(\C#N)c3nc4ccccc4s3)c(Oc3ccc(F)cc3)nc12 8.26% [at 11.5 µM, percent change from vehicle, -100% = no light]
COc1ccc(CNC(=O)c2cnc3sc(N4CCCC4)nn3c2=O)c(OC)c1 1.88%
CCCCNC(=O)CSc1nc2cc3c(cc2c(=O)n1CCCCCC(=O)NCc1ccc(OC)cc1)OCO3 -6.49%
Cc1ccccc1C(=O)NCCc1sc(-c2ccc(Cl)cc2)nc1C 2.17%
COc1ccc(CNC(=O)Cc2csc3nc(-c4ccc(F)cc4)cn23)cc1 -15.3%
COc1ccc(-c2nc(SCC(=O)NC3CCCC3)c(-c3ccc(C)cc3)[nH]2)cc1OC -27.6%
CCOc1ccc(NC(=O)C(=O)NCC(c2cccnc2)N2CCc3ccccc32)cc1 (stereo unspecified) -61.5%
CCOC(=O)C1CCCN(S(=O)(=O)c2ccc3c(c2)oc(=O)n3C)C1 (stereo unspecified) -23.3%
COc1ccc(N(Cc2cccs2)C(=O)Nc2cccc(Cl)c2)cc1 -20.8%
Cc1ccccc1NC(=O)CCN1C(=O)c2ccccc2Sc2ncccc21 -16.5%
COc1cccc(NC(=O)CCc2c(C)nc3ncnn3c2C)c1 -7.93%
COc1ccc(-c2cn3c(n2)sc2cc(C(=O)NCc4cccc(F)c4)ccc23)cc1 3.58%
Cc1ccc(NC(=O)Cn2c(=O)n(Cc3ccc4c(c3)OCO4)c(=O)c3ccccc32)cc1 -19.8%
Cc1ccccc1-c1cc2nccc(-c3cc(Cl)ccc3O)n2n1 -1.58%
Cc1ccc(C(=O)c2cn(Cc3ccccc3C)c3nc(C)ccc3c2=O)cc1 -26.6%
CCCc1cnc2c(c1SCc1cccc(F)c1)c(=O)n(C)c(=O)n2C -29.7%
CCCc1noc(-c2ccc(NCc3ccc(C)cc3)c([N+](=O)[O-])c2)n1 2.31%
Cc1ccc(NC(=O)CN2C(=O)COc3ccc(S(=O)(=O)NC4CCCC4)cc32)c(Cl)c1 -25.4%
Cc1nc(C)c(CCNS(=O)(=O)c2ccc(F)cc2)s1 -27.8%
CN1C(=O)C2(c3ccccc31)N(c1ccc(Br)cc1)C(=O)CS2(=O)=O (stereo unspecified) -20.2%
COc1ccc2c(c1)-c1nc(NC(=O)c3cc(OC)c(OC)c(OC)c3)sc1CC2 -44%
